The values that follow come from publication PMC6919601, “Identification of Plasmodium dipeptidyl aminopeptidase allosteric inhibitors by high throughput screening” (PLoS ONE, 2019).

Several values for one entry are separate records, joined by “and”; a condition that tells them apart may be missing. Equal entries are not always repeated. Out of some 110,000 compounds screened, about 230 (0.21%) showed an effect of 50% or more. This is one part of the list.
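Note: 30 min substrate incubation versus DMSO and 10 µM JCP410 controls.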

The target in this assay is DPAP1 (Plasmodium falciparum, UniProt Q8IIJ9). Description: primary screen, percent inhibition; read by cleavage of a fluorogenic dipeptide substrate; higher = more effect of the substance. The arrangement: species or system P. falciparum D10 trophozoite lysates; single well.
Sequence of DPAP1 (Q8IIJ9 whole entry, looked up): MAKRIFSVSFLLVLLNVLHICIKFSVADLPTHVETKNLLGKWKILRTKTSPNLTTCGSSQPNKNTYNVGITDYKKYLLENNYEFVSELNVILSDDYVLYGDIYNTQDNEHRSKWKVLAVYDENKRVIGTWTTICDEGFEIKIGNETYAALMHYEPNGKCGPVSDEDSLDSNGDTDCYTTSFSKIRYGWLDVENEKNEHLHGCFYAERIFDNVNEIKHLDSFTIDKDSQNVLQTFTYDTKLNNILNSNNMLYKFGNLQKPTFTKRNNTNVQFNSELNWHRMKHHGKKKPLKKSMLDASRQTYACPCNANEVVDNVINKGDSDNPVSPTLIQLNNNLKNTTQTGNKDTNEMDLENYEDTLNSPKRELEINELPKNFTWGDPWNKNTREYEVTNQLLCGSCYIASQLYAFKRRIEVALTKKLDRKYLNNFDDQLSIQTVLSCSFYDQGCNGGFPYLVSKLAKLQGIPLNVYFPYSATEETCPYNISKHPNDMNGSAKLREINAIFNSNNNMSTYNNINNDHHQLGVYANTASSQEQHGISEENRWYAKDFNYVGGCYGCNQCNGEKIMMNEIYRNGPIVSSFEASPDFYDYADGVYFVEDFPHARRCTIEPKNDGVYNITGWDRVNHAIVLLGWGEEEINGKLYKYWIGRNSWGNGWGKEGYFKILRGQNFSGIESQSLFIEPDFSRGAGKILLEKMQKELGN
In the case of `Cc1ccc2nc3c(c(N)c2c1)CCN3C`, the “% Inhibition @ 10 uM” value came out at 0.266%.
The result for `CC(C)(C)NS(=O)(=O)c1ccc(OCC(=O)N2CCCCC2)cc1` reads 3.04%; that for `COc1cccc(OC)c1C(=O)Nc1cc(Cl)c(Cl)cc1Cl`, 1.38%.
With `COc1ccc(-c2cc(-c3ccccc3)nc(SC)c2C#N)cc1`, the “% Inhibition @ 10 uM” value is -0.216%.
With `COC(=O)/C(C#N)=C/c1ccc(C)o1` the figure was -0.256%.
With `FC(F)(F)C1=NC(C(F)(F)F)N=C(c2ccccc2)N1` (stereo not drawn) the figure was -3.92%.
The result for `CCOC(=O)c1[nH]c(C)c(C(=O)N(C)C)c1C` reads -1.66%; that for `CCOC(=O)c1ccc(S(=O)(=O)N2CCOCC2)cc1`, 13%; that for `COc1ccc(C(=O)Nc2ccc(C(=O)NCc3ccco3)cc2)cc1`, -6.33%.
With `O=C(Nc1ccc(-c2nc3ncccc3o2)cc1)c1cccc2ccccc12`, the “% Inhibition @ 10 uM” value is reported as -0.865%.
With `O=C(Nc1cccnc1Cl)C1CCCN(c2ncnc3c2nc2n3CCCCC2)C1` (stereo not drawn) the figure was 5.05%.
With `Cc1cc(C)c(S(=O)(=O)NCC(=O)Nc2ccc(C(N)=O)cc2)c(C)c1` the figure was -2.8%.
The result for `C=C(C)CSc1nc(N)c2c3c(sc2n1)COC(C(C)C)C3` (stereo not drawn) reads 0.643%; that for `COc1ccc(C2CC(C(F)(F)F)n3nc(C(=O)NCc4ccccc4Cl)cc3N2)cc1OC` (stereo not drawn), 7.79%.
For the compound `COc1ccc2oc(=O)cc(CN(C)Cc3ccccc3)c2c1`, the “% Inhibition @ 10 uM” value is listed as -3.49%.
The result for `N#Cc1nc(/C=C/c2ccc(F)cc2)oc1N1CCC(C(N)=O)CC1` reads -0.808%; that for `CC(NC(=O)C1C2CCC(C2)C1C(=O)O)C1CC2CCC1C2` (stereo not drawn), 3.44%; that for `O=C(C1Sc2nnc(-c3ccccc3)n2NC1c1ccccc1)N1CCCC1` (stereo not drawn), 1.72%.
The result for `CNC(=O)C(=O)NCCc1ccc(Cl)cc1` reads -11.4%; that for `Cc1cc(Cl)ccc1OC(C)C(=O)NCc1cccnc1` (stereo not drawn), -11.2%.
As to `COc1ccccc1NC(=O)/C=C1/c2ccccc2CC(C)(C)N1C`, the “% Inhibition @ 10 uM” value was found to be 0.345%.
On to `Cc1cc2c(/C=C/C(=O)O)nc(-c3ccccc3)nc2s1`, for which the “% Inhibition @ 10 uM” value is recorded as 5.93%.
Turning to `Cc1nn2c(=O)/c(=C/c3cn(-c4ccccc4)nc3-c3ccc4c(c3)CC(C)O4)sc2nc1=O` (stereo not drawn), the “% Inhibition @ 10 uM” value was -1.92%.
`CCOC(=O)c1c(NC(=O)c2onc(C)c2Cl)sc2c1CCCC2`: the “% Inhibition @ 10 uM” value is -0.0115%.
The result for `CCCC(=O)c1ccc(C(=O)O)s1` reads -2.7%.
On to `COc1ccc(CCNC(=O)Cn2nnc(C(=O)NCc3ccc(F)cc3)c2N)cc1OC`, for which the “% Inhibition @ 10 uM” value was -0.00718%.
With `CNC(=O)/C(=C/c1ccco1)NC(=O)c1ccc(C)cc1` the figure was -3.92%.
The result for `O=C(CC1Sc2ccccc2NC1=O)Nc1ccccc1` (stereo not drawn) reads 4.63%.
The result for `Fc1ccc(-c2csc(NCc3ccco3)n2)cc1` reads 1.74%.
With `COc1cc2c(cc1OC)C(c1cc(Cl)cc(Cl)c1O)NCC2` (stereo not drawn), the “% Inhibition @ 10 uM” value was -5.28%.
The result for `CCCCNC(=O)CCc1c(C)nc2nc(-c3cc(OC)cc(OC)c3)nn2c1C` reads 1.26%.
With `CCCOc1ccccc1C1C(C#N)=C(N)Oc2[nH]nc(-c3ccc(OC)cc3)c21` (stereo not drawn) the figure was -2.88%.
The result for `COC(=O)c1[nH]c2c(c1C)C(=O)CCC2` reads 3.04%; that for `Cc1nnc(C)n1/N=C\c1cccc(OCc2ccccc2)c1`, -7.9%.
As for `O=C(Nc1ccccc1)C(C(=O)Nc1ccccc1)C12CC3CC(CC(C3)C1)C2`, the “% Inhibition @ 10 uM” value is -2.75%.
With `COc1ccccc1N1CCN(C(=O)CN(Cc2ccccc2)S(C)(=O)=O)CC1` the figure was 1.59%; with `Cc1cc(=O)oc2c(C)c3occ(-c4ccc(F)cc4)c3cc12`, -1.15%; with `Cc1ccc(C(=O)Nc2ccc(S(=O)(=O)N3CCCCCC3)cc2)cc1`, -4.82%.
With `CC(C)(C)c1cc(C(=O)NCCN2CCCC2)cc(C(C)(C)C)c1` the figure was -0.0619%.
Regarding `COc1ccc(C2CC(c3ccc(Cl)cc3)=NN2c2ccccc2F)c(OC)c1` (stereo not drawn), the “% Inhibition @ 10 uM” value is reported as -0.999%.
With `O=C(NCc1ccccc1Cl)C(NS(=O)(=O)c1cccs1)c1ccccc1` (stereo not drawn) the figure was -1.28%; with `CCc1ccc(C2=CC(c3ccccc3Cl)n3ncnc3N2)cc1` (stereo not drawn), 0.0842%.
The result for `Cc1cc(C)c(-n2cccc2CNC2CCCCC2)c(C)c1` reads 1.29% and -2.42%; that for `COC(=O)c1c(N2C(N)=C(C#N)C(c3ccccc3)C3=C2CCCC3=O)sc2c1CCCC2` (stereo not drawn), 1.13%; that for `COc1ccc(C(C)=O)cc1N1C(=O)C2C3C=CC(C3=C(C)C)C2C1=O` (stereo not drawn), 2.38%.
The result for `COc1cc2c(C(=O)NCCN3CCOCC3)cn(CC(C)C)c(=O)c2cc1OC` reads 0.505%; that for `CCOc1ccc(-c2nn3c(-c4ccccc4)nnc3s2)cc1`, 0.0539%.
For the compound `O=C(C1=C(O)C(=O)N(CCOCCO)C1c1ccc(Cl)cc1Cl)c1ccccc1` (stereo not drawn), the “% Inhibition @ 10 uM” value was -2.03%.
With `CCCNC(=O)c1cnn(-c2ccccc2)c1C1CCNCC1`, the “% Inhibition @ 10 uM” value is 6.57%.
With `N#Cc1c(NC(=O)C2CC2)sc2c1CCCC2` the figure was 5.58%; with `C=CCn1c(CNC(=O)c2ccc(F)cc2)nc2ccccc21`, -0.972%.
